Molecules are shown by their SMILES. The whole screen tested about 52,000 compounds, of which about 4,300 (8.3%) were called active. Rule as the data show it: active = survival mostly below about 52% (no sharp cut-off); inactive = mostly above about 56%. The list shows a part of the results.

This assay deals with DeltatarO mutant. In words: growth inhibition of S. aureus wild type versus tarO mutant, primary screen, teichoic acid synthesis inhibitors, RN4220, OD600 (AID 463173). Particulars: OD600, 18 h, stronger effect = lower value, screened at 18.75 µg/mL (by protocol).
`CCc1nnc(SCc2ccc(F)cc2Cl)c2cc3sccc3n12`: the survival is inactive: 80%.

On to `CCN1CCN(C(=O)c2ccc3c(c2)N(Cc2cccc(Cl)c2)C(=O)c2ccccc2S3(=O)=O)CC1`, for which the survival is inactive: 102%.

Take `COc1ccc(-c2noc(C3CC(=O)N(c4ccc(C)c(F)c4)C3)n2)c(OC)c1` (configuration not stated): the survival is inactive: 107%.

On to `COc1ccccc1CNC(=O)CSc1ncc2c(n1)-c1ccccc1N(Cc1ccc(C)cc1)S2(=O)=O`, for which the survival was inactive: 64%.

Consider `CCc1ccc(CNC(=O)c2ccc3c(c2)nc2n3CCOC2)cc1`, for which the survival is inactive: 115%.

For `CC(C)CCNC(=O)CN1C(=O)COc2ccc(S(=O)(=O)N3CCOCC3)cc21`, the survival is inactive: 90%.

Consider `COc1ccc(NC(=O)C(=O)NCCc2ccccc2)cc1OC`, for which the survival is inactive: 53%.

As for `COc1cccc(C(=O)Nc2ccccc2C(=O)OCc2cc(=O)n3nc(C)sc3n2)c1`, the survival is inactive: 85%.

As for `CC(C)c1ccc(NC(=O)C2CCCN(S(=O)(=O)c3ccc(Br)s3)C2)cc1` (configuration not stated), the survival was inactive: 66%.

As for `CCOC(=O)c1cccc(NC(=O)c2cc3c(Cl)nc4ccc(C)cc4c3s2)c1`, the survival is inactive: 105%.

With `COc1ccc(-n2cc(-c3ccccc3)c3c(SC(C)C(C)=O)ncnc32)cc1` (configuration not stated), the survival was inactive: 54%.

In the case of `CCc1ccc(NS(=O)(=O)c2ccc3[nH]cc(C(=O)NC4CCCC4)c(=O)c3c2)cc1`, the survival is active: 8%.

In the case of `CN1CCN(C(CNC(=O)C(=O)Nc2ccc(F)cc2)c2cccnc2)CC1` (configuration not stated), the survival is inactive: 81%.

As to `Cc1cc2oc(C(=O)Nc3nc(-c4ccccc4)ns3)c(C)c2cc1Cl`, the survival was active: 45%.

For the molecule `Cc1ccc(NC(=O)CN2C(=O)CCc3cc(S(=O)(=O)N4CCOCC4)ccc32)c(C)c1`, the survival was inactive: 79%.

As to `CCC(CC)C(=O)N1CCc2cc(OC)c(OC)cc2C1COc1ccccc1OC` (configuration not stated), the survival is inactive: 80%.

Turning to `CC(=O)c1ccc(NS(=O)(=O)c2ccc3[nH]c4c(c3c2)CCCCCC4)cc1`, the survival was inactive: 84%.

For the molecule `Cc1ccc(C)c(Cn2nnc(C(=O)NCc3ccccc3)c2N)c1`, the survival was inactive: 78%.

Consider `CCC(=O)N1CCc2cc(S(=O)(=O)CCC(=O)N3CCN(c4ccccc4F)CC3)ccc21`, for which the survival was inactive: 84%.

Turning to `Cc1ccc(CNC(=O)c2cc3sccc3n2Cc2ccc(F)cc2)cc1`, the survival is inactive: 83%.

On to `CCOc1ccc(-c2cnc(NCc3cccc(Cl)c3)n2C)cc1`, for which the survival is active: 30%.

Turning to `COc1ccc(C(=O)CCC(=O)Nc2cccc(C(C)=O)c2)cc1`, the survival was inactive: 96%.

Take `Cc1ccc(Cn2c(=O)n(Cc3ccc(Cl)cc3)c(=O)c3cccnc32)cc1`: the survival was inactive: 78%.

For `CCOc1ccc(NC(=O)CSc2nnc(NC(=O)Nc3ccccc3)s2)cc1`, the survival is inactive: 79%.

For the molecule `CCC1CCCCN1C(=O)CSc1nnc2c3ccccc3n(CC(=O)O)c2n1` (configuration not stated), the survival is inactive: 71%.

As to `Cc1nc2cc(-c3cccc(F)c3)nn2c(C)c1CCC(=O)NC1CCCCC1`, the survival was inactive: 95%.

As for `CCOc1ccc(-c2nonc2NC(=O)COc2ccc(C)c(C)c2)cc1OCC`, the survival is inactive: 111%.

As to `O=C(c1ccc2c(c1)N(Cc1cccc(Cl)c1)C(=O)c1ccccc1S2(=O)=O)N1CCN(c2cccc(C(F)(F)F)c2)CC1`, the survival is inactive: 98%.

On to `COc1ccc(-c2nn(C)c3sc(C(=O)N4CCN(c5cc(Cl)ccc5C)CC4)cc23)cc1OC`, for which the survival was inactive: 103%.

Take `Cn1c(NN)nc2c(c1=O)C1(CCCC1)Cc1ccccc1-2`: the survival is inactive: 59%.

Regarding `CCc1cc2c(=O)n(-c3ccccc3)c(SCC(=O)c3cccs3)nc2s1`, the survival was inactive: 101%.

Regarding `CC1CCc2c(sc(NC(=O)c3ccccc3)c2C(=O)Nc2ccccc2)C1` (configuration not stated), the survival is active: 42%.

For the molecule `COc1ccc(OC)c(CNc2ncnc3onc(-c4ccc(Cl)cc4)c23)c1`, the survival is inactive: 53%.

For `CCOC(=O)CSc1nc2ccc(NC(=O)COc3ccccc3)cc2s1`, the survival was inactive: 93%.

Turning to `Cc1cccc(CSc2cn(CC(=O)N3CCCCCC3)c3ccccc23)c1`, the survival was inactive: 82%.

Regarding `Cc1ccccc1-n1nc(CO)c(C(=O)NCCc2ccccc2)n1`, the survival is inactive: 86%.

Consider `COc1cccc(NC(=O)C(=O)NCC(c2cccnc2)N2CCN(c3ccccc3)CC2)c1` (configuration not stated), for which the survival was inactive: 97%.

Take `COc1ccc(Cl)cc1NC(=O)C1CCN(c2ncnc3c2nc2n3CCCCC2)CC1`: the survival was inactive: 89%.

As for `CCN(CC)c1ccc(NC(=O)c2cnn3c(C(F)F)cc(-c4ccccc4)nc23)cc1`, the survival was active: 59%.

`O=C(CCC(=O)N1Cc2ccccc2Oc2ncccc21)NCc1ccccc1Cl`: the survival is inactive: 74%.

`Cc1cc(C)n(CCCC(=O)NCCn2nccc2C)n1`: the survival was inactive: 76%.

Regarding `COc1ccc(C(c2c(O)cc(C)n(Cc3ccco3)c2=O)N2CCN(c3ccccc3)CC2)cc1` (configuration not stated), the survival is inactive: 88%.

In the case of `N#CC1=C(S)NC(=O)C(C#N)C12CCCCC2` (configuration not stated), the survival was inactive: 85%.

Consider `CCCCN(C)CCNC(=O)C1CCN(c2nc3ccc(CC)cc3s2)CC1`, for which the survival is inactive: 45%.

Take `CCOC(=O)C(C)Sc1nnc(-c2ccc(F)cc2)o1` (configuration not stated): the survival is inactive: 86%.

Regarding `CCCOc1ccc(-c2cccc(NS(=O)(=O)c3cc(OC)ccc3OC)c2)nn1`, the survival is inactive: 99%.

Turning to `O=C(NCc1ccc(Cl)cc1)c1cnc2sc(N3CCCCCC3)nn2c1=O`, the survival was inactive: 89%.

Consider `Cc1ccc(S(=O)(=O)c2nc(-c3cccs3)oc2SCC(=O)Nc2cc(C)cc(C)c2)cc1`, for which the survival is inactive: 70%.

With `CN(CCc1ccccn1)C(=O)c1nn2c(C(F)(F)F)cc(-c3ccco3)nc2c1Cl`, the survival is inactive: 50%.

For the molecule `COc1ccccc1OCC(=O)N(Cc1cccs1)C1CCS(=O)(=O)C1` (configuration not stated), the survival is inactive: 53%.

With `COc1ccccc1CNc1nc(-c2ccco2)nn1S(C)(=O)=O`, the survival is inactive: 70%.

On to `Cc1cccc(Cn2c(=O)n(CCCC(=O)NCc3ccccc3Cl)c(=O)c3ccccc32)c1`, for which the survival was inactive: 99%.

For the molecule `Cc1ccc(Nc2c3c(nc4nc(-c5cccs5)nn24)CCCC3)cc1F`, the survival was active: 20%.

Turning to `COc1ccc(N2C(=O)CSC23C(=O)N(Cc2cccc(C(F)(F)F)c2)c2ccccc23)cc1` (configuration not stated), the survival was inactive: 67%.

For `Cc1cc(OCCN2CCOCC2)nc(N2CCOCC2)n1`, the survival was inactive: 90%.

For the molecule `CCOc1ccc2oc(=O)cc(CN3CCN(Cc4ccc(C)cc4)CC3)c2c1`, the survival is inactive: 48%.

Regarding `CCOc1ccc(-n2ccnc2SCC(=O)Nc2cccc3ccccc23)cc1`, the survival was inactive: 68%.

The values above are taken from PubChem BioAssay AID463173 (ICCB-Longwood Screening Facility, Harvard Medical School, 2010).
